In PubChem BioAssay AID651820 (National Center for Advancing Translational Sciences (NCATS), 2012):
Out of some 340,000 compounds screened, about 12,000 (3.5%) were called active. The inconclusive results got no clear call from the source; some entries with a clear call stand among them for comparison. Calls follow the shape of the dose curve; as a rule, active = well fitted inhibition curve with a large enough effect; inconclusive = small, poorly fitted or top-dose-only effect, or another doubt; inactive = no such curve, though single readings can be large or run the other way. Potencies of inconclusive entries are left out as doubtful fits.

Test: qHTS Assay for Inhibitors of Hepatitis C Virus (HCV)
Conditions: Huh7.5.1 HCVcc-Cre (HCVcc is cell-culture hepatitis C virus) infection, luciferase reporter, 44 h; series mostly up to 41.8 µM
Method in brief: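 Luciferase read-out (15 sec integration) after a 15 min room-temperature substrate step quantifies HCVcc-Cre infection. Cells, 1,000 per well, had compound added 4 h post-plating, then virus at ~0.5 moi, and were cultured 44 h.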
Potency is read from the fitted curve at half-maximal effect; tags tell the direction and shape of the fitted curve.

**Q.** Which Potency does the source give for CN(CCCC(=O)Nc1ccc(OC(F)F)cc1)S(=O)(=O)c1ccc(F)cc1 here?
**A.** active: 11.2 µM

**Q.** For CCN(CC(=O)Nc1c(F)cccc1F)C(=O)CCN1C(=O)C2CCCCC2C1=O (stereo unspecified), which Potency is on record?
**A.** inactive

**Q.** With O=C(NCCc1ccccc1)C(=O)NCC1CCCN1S(=O)(=O)c1cccs1 (stereo unspecified) as the molecule, how does the Potency read?
**A.** inconclusive [inhibitor, partial curve]

**Q.** With O=c1[nH]cnc2scc(-c3ccc(Br)cc3)c12 as the molecule, how does the Potency read?
**A.** inactive

**Q.** With CCOc1ccc(C(C)=O)cc1COC(=O)c1cc([N+](=O)[O-])ccc1N1CCOCC1 as the molecule, how does the Potency read?
**A.** inconclusive [inhibitor, partial curve]

**Q.** With COc1ccc(OC)c(-c2nc(C(=O)NCCCN3CCOCC3)cc3c2[nH]c2ccccc23)c1 as the molecule, how does the Potency read?
**A.** inconclusive [inhibitor, full curve]

**Q.** Which Potency does the source give for COc1cc(C)ccc1Oc1nc(-c2ccccc2O)nc2ccccc12 here?
**A.** inconclusive [inhibitor, single point]

**Q.** Which Potency does the source give for COc1ccccc1Nc1ccc(C(=O)NC2CCCCC2)cn1 here?
**A.** inconclusive [inhibitor, partial curve]

**Q.** With Cc1ccccc1-c1nc2c(s1)CCc1onc(-c3ccc(Cl)cc3)c1-2 as the molecule, how does the Potency read?
**A.** inactive

**Q.** For Cc1cc(-c2sccc2C)nc(-n2cccc2)n1, which Potency is on record?
**A.** inconclusive [inhibitor, partial curve]

**Q.** With CCN(CC)C(=O)[C@H]1CC(CC(=O)NC/C=C(\C)CCC=C(C)C)C(=O)N2CCc3c([nH]c4ccc(OC)cc34)[C@]12C (stereo partly specified) as the molecule, how does the Potency read?
**A.** inconclusive [inhibitor, partial curve, poor fit]

**Q.** With Cc1nnc2sc(SCc3cccc(Cl)c3)nn2c1=O as the molecule, how does the Potency read?
**A.** inactive

**Q.** For CCC(C)C(NC(=O)c1ccc(Cl)cc1)C(=O)Nc1cccnc1 (stereo unspecified), which Potency is on record?
**A.** inconclusive [inhibitor, single point]

**Q.** For COc1cccc(NC(=O)COc2coc(CN3CCc4ccccc4C3)cc2=O)c1, which Potency is on record?
**A.** inactive

**Q.** For NC(=O)c1ccc(NCc2ccco2)c([N+](=O)[O-])c1, which Potency is on record?
**A.** inconclusive [inhibitor, single point]

**Q.** With Cc1ccc(/C=C2\SC(=S)N(CCCC(=O)Nc3ccccn3)C2=O)cc1 as the molecule, how does the Potency read?
**A.** inconclusive [inhibitor, single point]

**Q.** With COc1cccc(-c2csc(NC(C)=O)n2)c1 as the molecule, how does the Potency read?
**A.** inconclusive [inhibitor, full curve]

**Q.** Which Potency does the source give for O=C(Nc1ccccc1C(=O)NCc1ccco1)Nc1cccc2ccccc12 here?
**A.** active: 11.2 µM

**Q.** For COc1cc(NC(=O)c2ccccc2NS(=O)(=O)c2ccc(Cl)s2)cc(OC)c1, which Potency is on record?
**A.** inconclusive [inhibitor, single point]

**Q.** With CCC(=O)N1CCc2cc(Br)cc(S(=O)(=O)NCCN3CCCCC3C)c21 (stereo unspecified) as the molecule, how does the Potency read?
**A.** inconclusive [inhibitor, partial curve, poor fit]

**Q.** Which Potency does the source give for COc1ccc(OC)c(-n2c(=S)[nH]c3cc(C(=O)N4CCCCC4)ccc3c2=O)c1 here?
**A.** inactive

**Q.** Which Potency does the source give for C=CCOc1ccc(/C=C2\SC(=S)N(C(C(=O)O)c3ccccc3)C2=O)cc1 (stereo unspecified) here?
**A.** inactive

**Q.** For Cc1c(C(=O)Nc2nonc2-c2ccc(F)cc2)oc2ccc(F)cc12, which Potency is on record?
**A.** inconclusive [inhibitor, single point]

**Q.** With CC1C(=O)N(Cc2ccc([N+](=O)[O-])cc2)c2ccccc2N1C(=O)c1c(F)cccc1F (stereo unspecified) as the molecule, how does the Potency read?
**A.** inconclusive [inhibitor, single point]

**Q.** For CC[C@@H](C(=O)[C@@H](C)[C@@H](O)[C@H](C)[C@@H]1O[C@@H]([C@@H](CC)C(=O)O)CC[C@@H]1C)[C@H]1O[C@]2(C=C[C@@H](O)[C@]3(CC[C@@](C)([C@H]4CC[C@](O)(CC)[C@H](C)O4)O3)O2)[C@H](C)C[C@@H]1C, which Potency is on record?
**A.** active: 0.355 µM

**Q.** For O=C(Cc1ccc(Cl)cc1)NCCS(=O)c1ccc(Cl)cc1 (stereo unspecified), which Potency is on record?
**A.** inactive

**Q.** For CC(C)Cc1ccc(C(=O)NCc2ccc3c(c2)OCO3)o1, which Potency is on record?
**A.** inconclusive [inhibitor, single point]

**Q.** With N#Cc1ccc(OCc2ccc(C(=O)O)o2)cc1 as the molecule, how does the Potency read?
**A.** inactive

**Q.** For C[C@@H]1CN([C@H](C)CO)C(=O)c2cc(NC(=O)Cc3ccccc3)ccc2O[C@H]1CN(C)Cc1ccc(Oc2ccccc2)cc1, which Potency is on record?
**A.** active: 11.2 µM

**Q.** Which Potency does the source give for O=C1CN(c2nc(-c3ccccc3)c3ccccc3n2)c2ccccc2N1 here?
**A.** inconclusive [inhibitor, single point]

**Q.** Which Potency does the source give for Cc1cc(-c2nnc(SCC(=O)Nc3ccc(C(F)(F)F)cc3)n2C)no1 here?
**A.** inconclusive [inhibitor, partial curve]

**Q.** For CC(=O)N(Cc1ccccc1)c1nc(-c2ccccc2)cs1, which Potency is on record?
**A.** inconclusive [inhibitor, partial curve]

**Q.** With COc1ccc(C(CNC(=O)COc2cccc(C(F)(F)F)c2)N2CCCC2)cc1 (stereo unspecified) as the molecule, how does the Potency read?
**A.** inconclusive [inhibitor, single point]

**Q.** With CCN(CC)c1ccc(/C=C/c2cc(-c3ccccc3)c3ccccc3n2)cc1 as the molecule, how does the Potency read?
**A.** active: 14.1 µM

**Q.** Which Potency does the source give for CC(C)[C@H](NC(=O)c1ccco1)C(=O)N(C)Cc1ccc(C(F)(F)F)cc1 here?
**A.** inconclusive [inhibitor, single point]

**Q.** With COc1cc(/C=C/C(=O)c2ccc3c(c2)OCO3)cc(Cl)c1O as the molecule, how does the Potency read?
**A.** inactive

**Q.** For O=c1[nH]sc2cc(F)ccc12, which Potency is on record?
**A.** inconclusive [inhibitor, partial curve]

**Q.** With CC(=O)Nc1ccc(NC(=O)C(C)OC(=O)C(C)SCC(=O)Nc2ccc(F)cc2)cc1 (stereo unspecified) as the molecule, how does the Potency read?
**A.** inconclusive [inhibitor, single point]

**Q.** For CCOc1ccc(CCNC(=O)C2CC(=O)N(c3ccccc3OCC)C2)cc1OCC (stereo unspecified), which Potency is on record?
**A.** inconclusive [inhibitor, partial curve]

**Q.** For CC(C)(C)c1ccc(C(=O)N2CCN(S(=O)(=O)c3ccc(Br)s3)CC2)cc1, which Potency is on record?
**A.** inconclusive [inhibitor, single point]

**Q.** For CCc1ccccc1NCC(=O)Nc1ccc(Cl)c(C(F)(F)F)c1, which Potency is on record?
**A.** inconclusive [inhibitor, partial curve]

**Q.** Which Potency does the source give for CC(C)Oc1cccc(C(=O)C2CCCN(C(=O)c3ccccn3)C2)c1 (stereo unspecified) here?
**A.** inactive

**Q.** For COC(=O)C(C)Oc1cc(OC(C)C(=O)OC)c2c(-c3ccccc3)cc(=O)oc2c1 (stereo unspecified), which Potency is on record?
**A.** inconclusive [inhibitor, full curve]

**Q.** Which Potency does the source give for Cc1onc(-c2c(F)cccc2Cl)c1C(=O)Nc1cc(S(=O)(=O)N2CCCCC2)ccc1O here?
**A.** inconclusive [inhibitor, single point]

**Q.** With CCN(C(=O)CSc1nnc(-c2ccccc2Br)o1)C1CCS(=O)(=O)C1 (stereo unspecified) as the molecule, how does the Potency read?
**A.** inactive

**Q.** For COCCCn1c(SCc2ccccc2)nc2cc(OC)c(OC)cc2c1=N, which Potency is on record?
**A.** inconclusive [inhibitor, partial curve]

**Q.** Which Potency does the source give for C=CCC[C@H](Cc1ccc(F)cc1)C(=O)OC[C@H](C)NC(=O)[C@H](CC=C)CC(=O)N(CCO)Cc1ccccc1 here?
**A.** inconclusive [inhibitor, partial curve]

**Q.** For COC(=O)c1ccc(Oc2nc(N3CCCCC3)nc(N3CCOCC3)n2)cc1, which Potency is on record?
**A.** inconclusive [inhibitor, partial curve, poor fit]

**Q.** With COc1ncnc2sc(-c3ccccc3)cc12 as the molecule, how does the Potency read?
**A.** inconclusive [inhibitor, partial curve]

**Q.** For O=S(=O)(N/N=C\C=C\c1ccccc1)c1ccc(Br)cc1, which Potency is on record?
**A.** inactive

**Q.** With CN(C)c1cccc(C(=O)N(Cc2ccccc2)Cc2ccccc2)c1 as the molecule, how does the Potency read?
**A.** inactive

**Q.** Which Potency does the source give for Cn1c(=O)c2c(ncn2CC(COCc2ccc(Cl)cc2)OCc2ccc(Cl)cc2)n(C)c1=O (stereo unspecified) here?
**A.** inconclusive [inhibitor, partial curve]

**Q.** For COc1ccccc1N(C)S(=O)(=O)c1ccc(C(=O)N2CCCc3ccccc32)cc1, which Potency is on record?
**A.** inconclusive [inhibitor, partial curve]

**Q.** Which Potency does the source give for O=C(Nc1ccc(N2CCOCC2)c(S(=O)(=O)Nc2ccc(Cl)cc2)c1)c1cnccn1 here?
**A.** inconclusive [inhibitor, single point]

**Q.** With OCC[C@H]1NCc2cc(CO)cc(-c3ccccc3)c21 as the molecule, how does the Potency read?
**A.** inconclusive [inhibitor, single point]

**Q.** For O=C(NCCC1=CCCCC1)c1cnsn1, which Potency is on record?
**A.** inconclusive [inhibitor, partial curve, poor fit]

**Q.** Which Potency does the source give for CCCOc1cccc(-c2cc(-c3n[nH]c(=S)n3CC)c3ccccc3n2)c1 here?
**A.** inconclusive [inhibitor, partial curve]

**Q.** For CCn1ncc(Br)c1C(=O)Nc1ccc(C(C)C)cc1, which Potency is on record?
**A.** inconclusive [inhibitor, single point]

**Q.** Which Potency does the source give for N/C(Cc1ccc(Cl)c(Cl)c1)=N\OC(=O)c1cccs1 here?
**A.** inconclusive [inhibitor, single point]

**Q.** For COc1ccc(NC2Oc3cc4c(cc3C(c3cc(OC)c(OC)c(OC)c3)C2C)OCO4)cc1 (stereo unspecified), which Potency is on record?
**A.** inconclusive [inhibitor, full curve, poor fit]

**Q.** Which Potency does the source give for O=C(Nc1ccc(N2CCCCC2)cc1)c1cc([N+](=O)[O-])cc([N+](=O)[O-])c1 here?
**A.** inactive

**Q.** With CC(C)C[C@@H](CSc1ccccc1)N1CCN(C)CCC1=O as the molecule, how does the Potency read?
**A.** inactive

**Q.** Which Potency does the source give for COc1ccccc1-c1cc(C(F)(F)F)n2ncc(S(=O)(=O)c3ccccc3)c2n1 here?
**A.** inconclusive [inhibitor, single point]

**Q.** For COC(=O)c1sc(C(F)(F)F)c(-c2ccccc2)c1S(=O)(=O)NC(C)(C)C, which Potency is on record?
**A.** inactive

**Q.** Which Potency does the source give for Cc1nccc(-c2cccc(NC(=O)Nc3ccc(Cl)cc3)c2)n1 here?
**A.** inconclusive [inhibitor, full curve, poor fit]

**Q.** Which Potency does the source give for CCn1c(=O)c2cc(C(=O)Nc3ccc(OC)cc3OC)sc2c2ccccc21 here?
**A.** inactive
